The values that follow come from paper PMC5681660, “Reduced hepatitis B and D viral entry using clinically applied drugs as novel inhibitors of the bile acid transporter NTCP” (Scientific Reports, 2017).

Structures can show the parent of a compound that is named as a salt. Where two headings read alike, the source gives them in different places. Starred links: 1 amine or outer side, 2 acyl side, 3 side chain; linkers in the order of their positions; H or OH if unused. Positions of bridges follow the written chain, without caps; N, C: chain ends. Non-standard residues stand in square brackets, D forms with d. Residues, ends and D or L forms follow the SMILES beside them. *: point of attachment. X1 = NC1=N[C@@H]([C@H](N[*:1])C(=O)[*:2])C[C@H](O)N1; ΔAla(Z-3-ureido) = NC(=O)N/C=C(\N)C(=O)O; β3hOrn = NCCC[C@H](N)CC(=O)*; Dap = NC[C@H](N)C(=O)O

Assay [1] deals with T1, human NTCP (Homo sapiens, UniProt Q14973).
T1 sequence (Q14973 1-349): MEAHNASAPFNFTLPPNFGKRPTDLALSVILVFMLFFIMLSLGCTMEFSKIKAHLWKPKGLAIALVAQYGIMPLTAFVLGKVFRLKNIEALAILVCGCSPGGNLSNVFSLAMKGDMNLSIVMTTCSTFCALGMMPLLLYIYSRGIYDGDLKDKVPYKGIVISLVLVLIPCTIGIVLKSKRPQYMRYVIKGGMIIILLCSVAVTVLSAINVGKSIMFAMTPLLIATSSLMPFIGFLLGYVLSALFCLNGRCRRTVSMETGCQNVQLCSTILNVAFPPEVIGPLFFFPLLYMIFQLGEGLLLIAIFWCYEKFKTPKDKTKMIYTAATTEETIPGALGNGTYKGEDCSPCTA
The assay is described as follows: Screening taurocholate uptake assay (96-well, [14C]taurocholate, 10 µM drug). To be noted: for remaining activity at 10 µM: 10 min, read-out: %NTCP activity.

The target of assay [2] is T1, human NTCP. The assay is described as follows: Screening fluorescent competitive Myrcludex B-FITC binding assay (96-well, 10 µM drug). To be noted: for %NTCP binding: 10 µM drug, Myrcludex B-FITC binding; for remaining activity at 10 µM: 0.5 h.
Where [3] appears, read: read-out: %NTCP binding, screen, 10 µM drug, Myrcludex B-FITC binding.

Consider `C(#CCN1CCCC1)CN1CCCC1.Cl.Cl` [Tremorine dihydrochloride], for which the “%NTCP activity” value on human NTCP [1] was found to be 101.872%. The “%NTCP binding” value at human NTCP [2] (screen) is listed as 85.5389%.
For the molecule `C[C@]12C=CC(=O)C=C1CC[C@H]1[C@@H]3C[C@@H](O)[C@](O)(C(=O)CO)[C@@]3(C)C[C@H](O)[C@@]12F` [Triamcinolone], the remaining activity at 10 µM at human NTCP [1] was 63.5%; at human NTCP [2] (read-out: %NTCP binding), 81.8%.
For `Nc1nc(N)c2nc(-c3ccccc3)c(N)nc2n1` [Triamterene] the same measures were 138% and 106%.
`CCOC1O[C@H]([C@@H](COCc2ccccc2)OCc2ccccc2)[C@H](OCc2ccccc2)[C@H]1O` (stereo partly shown) [Tribenoside]: the remaining activity at 10 µM at human NTCP [1] was determined as 21.9%; at human NTCP [2] (read-out: %NTCP binding), 79.1%.
With `COP(=O)(OC)C(O)C(Cl)(Cl)Cl` (stereo not shown) [Trichlorfon], the remaining activity at 10 µM on human NTCP [1] came to 133%; on human NTCP [2] (setting [3]), 108%.
As for `NS(=O)(=O)c1cc2c(cc1Cl)NC(C(Cl)Cl)NS2(=O)=O` (stereo not shown) [Trichlormethiazide], the remaining activity at 10 µM at human NTCP [1] amounted to 111%; at human NTCP [2] (read-out: %NTCP binding), 109%.
On to `CSc1nc2cc(Cl)c(Oc3cccc(Cl)c3Cl)cc2[nH]1` [Triclabendazole], for which the figures for the remaining activity at 10 µM on human NTCP [1] and at human NTCP [2] (read-out: %NTCP binding) were 114% and 72.7%, respectively.
The like results for `CN1CCN(CCCN2c3ccccc3Sc3ccc(C(F)(F)F)cc32)CC1` [Trifluoperazine dihydrochloride] were, in that order, 101% and 77.1%.
For the molecule `O=c1[nH]c(=O)n([C@H]2C[C@H](O)[C@@H](CO)O2)cc1C(F)(F)F` [Trifluridine], the remaining activity at 10 µM on human NTCP [1] is 96.8%; at human NTCP [2] (read-out: %NTCP binding) it was 103%.
The like results for `CC(=O)Oc1cc(C(F)(F)F)ccc1C(=O)O` [Triflusal] were, in that order, 65.6% and 77.2%.
The like results for `CCC(COC(=O)c1cc(OC)c(OC)c(OC)c1)(c1ccccc1)N(C)C` (stereo not shown) [Trimebutine] were, in that order, 51.7% and 91.2%.
Regarding `CC(CN(C)C)CN1c2ccccc2Sc2ccccc21.CC(CN(C)C)CN1c2ccccc2Sc2ccccc21.O=C(O)C(O)C(O)C(=O)O` (stereo not shown) [Trimeprazine tartrate], the “%NTCP activity” value at human NTCP [1] (screen, 10 µM drug, [14C]taurocholate uptake) is 81.6261%. Further, the “%NTCP binding” value at human NTCP [2] (screen) is reported as 89.6044%.
For the molecule `COc1ccc(CN2CCNCC2)c(OC)c1OC` [Trimetazidine dihydrochloride], the remaining activity at 10 µM at human NTCP [1] and at human NTCP [2] (setting [3]) was 61% each time.
`CN1C(=O)OC(C)(C)C1=O` [Trimethadione]: the figures for the remaining activity at 10 µM on human NTCP [1] and at human NTCP [2] (read-out: %NTCP binding) were 69.7% and 76.9%, respectively.
For `COc1cc(C(=O)NCc2ccc(OCCN(C)C)cc2)cc(OC)c1OC` [Trimethobenzamide hydrochloride] the same measures were 122% and 112%.
Take `COc1cc(C(=O)N2CCOCC2)cc(OC)c1OC` [Trimetozine]: the results for the remaining activity at 10 µM on human NTCP [1] and on human NTCP [2] (read-out: %NTCP binding) were 113% and 105%, respectively.
The like results for `Cc1cc2cc3c(C)cc(=O)oc3c(C)c2o1` [Trioxsalen] were, in that order, 117% and 89.4%.
As for `CN(C)CCN(Cc1ccccc1)c1ccccn1` [Tripelennamine hydrochloride], the figures for the remaining activity at 10 µM at human NTCP [1] and on human NTCP [2] (read-out: %NTCP binding) were 88.6% and 81.3%, respectively.
For `CO[C@H]1C[C@H](O[C@H]2[C@H](C)[C@@H](O[C@@H]3O[C@H](C)C[C@H](N(C)C)[C@H]3OC(C)=O)[C@@H](C)C[C@@]3(CO3)C(=O)[C@H](C)[C@@H](OC(C)=O)[C@@H](C)[C@@H](C)OC(=O)[C@@H]2C)O[C@@H](C)[C@@H]1OC(C)=O` [Troleandomycin] the same measures were 73.7% and 114%.
Take `CN1[C@@H]2CC[C@H]1C[C@@H](OC(=O)c1c[nH]c3ccccc13)C2` [Tropisetron HCl]: the remaining activity at 10 µM at human NTCP [1] came to 78.5%; at human NTCP [2] (read-out: %NTCP binding), 78.4%.
Regarding `COc1cc(C(=O)NC2CCCNC2)cc(OC)c1OC` (stereo not shown) [Troxipide], the remaining activity at 10 µM on human NTCP [1] was 101%; at human NTCP [2] (read-out: %NTCP binding), 83.3%.
The like results for `CC(C)(C)NCC(O)c1ccccc1Cl` (stereo not shown) [Tulobuterol] were, in that order, 126% and 99.8%.
Regarding `CC[C@H]1OC(=O)C[C@@H](O)[C@H](C)[C@@H](O[C@@H]2O[C@H](C)[C@@H](O[C@H]3C[C@@](C)(O)[C@@H](O)[C@H](C)O3)[C@H](N(C)C)[C@H]2O)[C@@H](CC=O)C[C@@H](C)C(=O)/C=C/C(C)=C/[C@@H]1CO[C@@H]1O[C@H](C)[C@@H](O)[C@@H](OC)[C@H]1OC` [Tylosin], the remaining activity at 10 µM is 130% at human NTCP [1] and 88.5% on human NTCP [2] (read-out: %NTCP binding).
The like results for `CC(C)C[C@H](NC(=O)[C@@H](O)[C@H](N)Cc1ccccc1)C(=O)O` [Ubenimex] were, in that order, 88.1% and 64.2%.
For `COc1ccccc1N1CCN(CCCNc2cc(=O)n(C)c(=O)n2C)CC1` [Urapidil hydrochloride] the same measures were 61% and 120%.
The like results for `CC(C)[C@H](N)C(=O)OCCOCn1cnc2c(=O)[nH]c(N)nc21` [Valacyclovir hydrochloride] were, in that order, 20.2% and 60.1%.
Regarding `Cc1onc(-c2ccccc2)c1-c1ccc(S(N)(=O)=O)cc1` [Valdecoxib], the values for the remaining activity at 10 µM at human NTCP [1] and at human NTCP [2] (read-out: %NTCP binding) were 107% and 54.2%, respectively.
The like results for `CCCC(CCC)C(=O)O` [Valproic acid] were, in that order, 113% and 94.9%.
Consider `CCCCC(=O)N(Cc1ccc(-c2ccccc2-c2nnn[nH]2)cc1)[C@H](C(=O)O)C(C)C` [Valsartan], for which the remaining activity at 10 µM was determined as 114% on human NTCP [1] and 78% on human NTCP [2] (read-out: %NTCP binding).
For `CN[C@H](CC(C)C)C(=O)N[C@H]1C(=O)N[C@@H](CC(N)=O)C(=O)N[C@H]2C(=O)N[C@H]3C(=O)N[C@H](C(=O)N[C@H](C(=O)O)c4cc(O)cc(O)c4-c4cc3ccc4O)[C@H](O)c3ccc(c(Cl)c3)Oc3cc2cc(c3O[C@@H]2O[C@H](CO)[C@@H](O)[C@H](O)[C@H]2O[C@H]2C[C@](C)(N)[C@H](O)[C@H](C)O2)Oc2ccc(cc2Cl)[C@H]1O` [Vancomycin hydrochloride] the same measures were 35.3% and 81.4%.
Take `CCCc1nc(C)c2c(=O)[nH]c(-c3cc(S(=O)(=O)N4CCN(CC)CC4)ccc3OCC)nn12` [Vardenafil]: the values for the remaining activity at 10 µM on human NTCP [1] and at human NTCP [2] (read-out: %NTCP binding) were 115% and 104%, respectively.
Consider `CC(=O)O[C@H]1C[C@@H]2CC[C@@H]3[C@H](CC[C@@]4(C)[C@H]3C[C@H]([N+]3(C)CCCCC3)[C@@H]4OC(C)=O)[C@@]2(C)C[C@@H]1N1CCCCC1` [Vecuronium bromide], for which the remaining activity at 10 µM worked out at 112% on human NTCP [1] and 83% at human NTCP [2] (read-out: %NTCP binding, Prestwick library screen, Myrcludex B-FITC binding, 10 µM drug).
On to `COc1ccc(C(CN(C)C)C2(O)CCCCC2)cc1` (stereo not shown) [Venlafaxine], for which the remaining activity at 10 µM at human NTCP [1] was determined as 118%; on human NTCP [2] (setting [3]), 76.2%.
As for `Nc1ncnc2c1ncn2[C@@H]1O[C@H](CO)[C@@H](O)[C@@H]1O` [Vidarabine], the remaining activity at 10 µM on human NTCP [1] amounted to 79.6%; on human NTCP [2] (read-out: %NTCP binding), 92.3%.
The like results for `C=CC(N)CCC(=O)O` (stereo not shown) [Vigabatrin] were, in that order, 71.2% and 79.2%.
The like results for `CC[C@]12CCCN3CCc4c(n(c5ccccc45)[C@@](O)(C(=O)OC)C1)[C@@H]32` [Vincamine] were, in that order, 40.6% and 92.6%.
The like results for `CCOC(=O)C1=C[C@]2(CC)CCCN3CCc4c(n1c1ccccc41)[C@@H]32` [Vinpocetine] were, in that order, 70.9% and 72.2%.
As to `NCCC[C@H](N)CC(=O)N[C@H]1CNC(=O)[C@H]([C@H]2C[C@H](O)NC(N)=N2)NC(=O)/C(=C/NC(N)=O)NC(=O)[C@H](CO)NC(=O)[C@H](CO)NC1=O.O=S(=O)(O)O` [Viomycin sulfate] (β3hOrn-[Dap]SS[ΔAla(Z-3-ureido)][X1]; lactam 1-C), the “%NTCP activity” value on human NTCP [1] worked out at 118.632%. For the same molecule, the “%NTCP binding” value at human NTCP [2] (Prestwick library screen) is given as 91.0621%.
Take `C[C@@H](c1ncncc1F)[C@](O)(Cn1cncn1)c1ccc(F)cc1F` [Voriconazole]: the remaining activity at 10 µM on human NTCP [1] is 118%; on human NTCP [2] (read-out: %NTCP binding) it was 76.2%.
Take `O=C(CCCCCCC(=O)Nc1ccccc1)NO` [Vorinostat]: the remaining activity at 10 µM came to 65.1% at human NTCP [1] and 99% on human NTCP [2] (read-out: %NTCP binding).
Turning to `CC(=O)CC(c1ccccc1)c1c(O)c2ccccc2oc1=O` (stereo not shown) [Warfarin], the remaining activity at 10 µM came to 84.3% at human NTCP [1] and 78.1% on human NTCP [2] (setting [3]).
Regarding `O=C(NCCNCC(O)COc1ccc(O)cc1)N1CCOCC1` (stereo not shown) [Xamoterol hemifumarate], the values for the remaining activity at 10 µM on human NTCP [1] and at human NTCP [2] (read-out: %NTCP binding) were 76.8% and 87.1%, respectively.
The like results for `Cc1cccc(C)c1N=C1NCCCS1` [Xylazine] were, in that order, 114% and 86.6%.
Take `Cc1cc(C(C)(C)C)cc(C)c1CC1=NCCN1` [Xylometazoline hydrochloride]: the results for the remaining activity at 10 µM at human NTCP [1] and at human NTCP [2] (setting [3]) were 107% and 69.2%, respectively.
